Among all 43,000 compounds or so, about 200 (0.47%) were called active. Inconclusive results (about 12%) are left out. The call rests on the fitted dose curve; in most records, active means well fitted cell-killing curve with a large enough effect; inconclusive means small, poorly fitted or top-dose-only effect, or effect the other way; inactive means flat fitted curve, though single readings scatter. This is one part of the list.
assay: Cell viability qHTS assay in S16 Pmp22-F2sN cells; details: S16 Pmp22-F2sN Schwann cells (luciferase reporters placed in the Pmp22 gene) viability, CellTiter-Glo, 24 h; series mostly up to 57.5 µM; activity change, negative = cytotoxicity: at the top concentration; further: nearly all actives have a fitted effect of over 65% in size
In short: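 Seed 500-1,000 S16 Pmp22-F2sN cells per well in phenol-red-free DMEM with 10% heat-inactivated FBS; pin-add 23 nL compound; incubate 24 h at 37C; add CellTiter-Glo, wait 15 min protected from light; read luminescence.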
On the % scale 0 is the no-effect control and ±100 the full control effect.

Row | SMILES | activity change, negative = cytotoxicity
1 | CCCN(CCC)CCCNC(=O)Cn1ncc2c3ccccc3n(Cc3ccc(F)cc3)c2c1=O | inactive: -1.11%
2 | CCOC(=O)N1CCc2c(sc3c2c(=O)n(Cc2ccccc2)c(=O)n3Cc2c(F)cccc2Cl)C1 | inactive: 15.1%
3 | CN(Cc1ccccc1)C(=O)c1cc2c(=O)n(C)c3ccccc3c2s1 | inactive: 0.752%
4 | CSc1cccc(N2C(=O)N(Cc3ccc([N+](=O)[O-])cc3)c3ccccc3S2(=O)=O)c1 | inactive: 14.2%
5 | CC(=O)Cn1nnc2sc(-c3ccccc3)cc2c1=O | inactive: -13.1%
6 | COCCNC(=O)c1cc2n(n1)CCCN(Cc1ccc(C)cc1)C2=O | inactive: -29.4%
7 | COc1ccc(CC(=O)Nc2c(C(=O)Nc3ccccc3F)oc3ccccc23)cc1 | inactive: 4.88%
8 | COc1ccc(NC(=O)CC2C(=O)N(c3ccc(C)cc3)C(=O)N2CCc2ccccc2)cc1 (stereo unspecified) | inactive: 0.699%
9 | COc1ccc(NC(=O)Cc2coc3cc(C)cc(C)c23)c(OC)c1 | inactive: 3.61%
10 | COc1ccc2c(c1)c1c(c(=O)n(Cc3ccccc3)c(=O)n1Cc1cc(C)ccc1C)n2C | inactive: -0.436%
11 | COc1cccc(OCc2nc3ccccc3n2CCOc2ccccc2)c1 | inactive: 2.38%
12 | Cc1nn2c(=O)cc(COC(=O)c3ccccc3NC(=O)c3ccccc3C)nc2s1 | inactive: 3.3%
13 | COc1ccc(-c2ccc(NS(=O)(=O)c3ccc(F)c(C(F)(F)F)c3)cc2)nn1 | inactive: -13.5%
14 | COC(=O)c1c(NC(=O)CCCOc2ccc(C)cc2)sc2c1C(C(=O)OC)CC2 (stereo unspecified) | inactive: 20%
15 | CCc1cccc(CC)c1NC(=O)c1cc(S(=O)(=O)N2CCc3ccccc32)cn1C | inactive: 7.5%
16 | Cc1ccc(CN2CCCn3nc(C(=O)NCCN(C)C)cc3C2=O)cc1 | inactive: -3.82%
17 | CCOC(=O)c1c(C)[nH]c(C)c1S(=O)(=O)N1CCC(C(=O)NCc2ccccc2)CC1 | inactive: -28.6%
18 | Cc1ccc(C)c(OCCSc2nc3ccccc3n2CC(=O)N2CCOCC2)c1 | inactive: 19.9%
19 | Cn1nc(-c2ccc(OCC(=O)Nc3ccccc3)cc2)c2ccccc2c1=O | inactive: -2.45%
20 | Cc1ccc(S(=O)(=O)N2CCCC(c3nc4c(nnn4Cc4ccc(OC(F)(F)F)cc4)c(=O)[nH]3)C2)cc1 (stereo unspecified) | inactive: -13%
21 | CCCCNc1nc(Oc2ccc(=O)n(-c3ccccc3)n2)nc(N(C)C)n1 | inactive: -5.16%

Row | SMILES | activity change, negative = cytotoxicity
22 | COc1ccc(-n2ncc(C(=O)N3CCN(c4ccccn4)CC3)c2C2CCN(C(=O)OC(C)(C)C)CC2)cc1 | inactive: 1.22%
23 | COCCNc1nc(NCc2ccccc2OC)c2cnn(C)c2n1 | inactive: -3.08%
24 | CCC(C)NC(=O)c1ccc2c(c1)N(Cc1cccc(Cl)c1)C(=O)c1ccccc1S2=O (stereo unspecified) | inactive: -9.39%
25 | COCCNC(=O)c1c(NC(=O)Cc2coc3cc(C)ccc23)sc2c1CCCC2 | inactive: -0.325%
26 | CCOC(=O)c1cn(CC(=O)Nc2cccc(Cl)c2C)nn1 | inactive: 7.83%
27 | O=C(CN(c1cccc(Br)c1)S(=O)(=O)c1ccccc1)N1CCc2ccccc2C1 | inactive: -10.8%
28 | COc1ccc(N2CCN(c3nc(-c4ccccc4F)nc4ccccc34)CC2)cc1 | inactive: -1.56%
29 | CCOc1ccccc1NC(=O)C(NS(=O)(=O)c1cccc2nsnc12)c1ccccc1 (stereo unspecified) | inactive: 13.6%
30 | Cc1nnc(N2CCN(c3ccccc3F)CC2)c2c1nnn2Cc1ccc(F)cc1 | inactive: 5.24%
31 | CN(C(=O)c1nn(C)c2c1COc1ccccc1-2)c1cccc(C(F)(F)F)c1 | inactive: -8.41%
32 | CCOC(=O)Cn1c(=O)cc(-c2ccccc2)c2c(C)nn(C)c21 | inactive: 14.2%
33 | CCC(C)NC(=O)Cn1c(=O)n(-c2ccc(C)cc2)c(=O)c2ccccc21 (stereo unspecified) | inactive: 4.32%
34 | Cc1nc(-c2ccccc2)sc1-c1ccc(SCC(=O)Nc2ccc(F)cc2F)nn1 | inactive: 15.4%
35 | Cc1oc2ncnc(N3CCCCC3)c2c1C(=O)NCC1CCN(Cc2ccc(F)cc2)CC1 | inactive: -26.4%
36 | CCc1ccccc1N(CC)C(=O)c1cc2c(s1)-c1ccccc1OC2 | inactive: 1.89%
37 | CCc1ccc(-n2nc(CO)c(C(=O)NCc3ccccn3)n2)cc1 | inactive: -10.9%
38 | Cc1ccccc1CSc1nc2nc(C)c(Cc3ccccc3)c(C)n2n1 | inactive: -9.66%
39 | COc1ccc(OC)c(CCNC(=O)c2ccc(CS(=O)Cc3cccc(Cl)c3)o2)c1 (stereo unspecified) | inactive: -0.0385%
40 | O=C(OCc1ccccc1Cl)c1ccc(-c2nnn(Cc3ccccc3)n2)cc1 | inactive: 17%
41 | CC(C)Oc1ccc(CNC(=O)c2ccc(NC(=O)c3nsc4ccccc34)cc2)cc1 | inactive: -18.8%
42 | O=C(Nc1ccc(NC(=O)c2cccs2)cc1)c1ccc(Br)cc1 | inactive: -1.65%

Row | SMILES | activity change, negative = cytotoxicity
43 | CC(C)(C)C(=O)Nc1ccc2nc(SCC(=O)N3CCCC3)sc2c1 | inactive: 11.2%
44 | Cc1ccc(C)c(NC(=O)C(=O)NCCc2csc(-c3ccc(C(F)(F)F)cc3)n2)c1 | inactive: 2.54%
45 | CCN(CCCNC(=O)c1cc2cc3cc(C)ccc3nc2s1)c1cccc(C)c1 | inactive: 12.5%
46 | COc1ccc(/C=C(/C#N)c2nc(-c3ccc(-c4ccccc4)cc3)cs2)cc1 | inactive: 22.8%
47 | CCN(C(=O)Cn1ncc2c1-c1cc(C)ccc1OC2)c1cc(Cl)ccc1OC | inactive: -2.69%
48 | CCc1ccccc1NC(=O)CSc1ncc2c(n1)-c1ccccc1N(Cc1ccc(C)cc1)S2(=O)=O | inactive: -3.39%
49 | Cc1nc(-c2ccccc2)sc1CCNC(=O)c1ccco1 | inactive: 8.95%
50 | CCOC(=O)c1ccccc1NS(=O)(=O)c1c(-c2ccc(C)cc2)csc1C(=O)OC | inactive: 0.727%
51 | COc1cccc(CNC(=O)CCc2c(C)c3cc4c(C)c(C)oc4cc3oc2=O)c1 | inactive: 7.62%
52 | Cc1ccc(S(=O)(=O)c2cn(Cc3ccccc3)c3cc(N4CCCC4)c(F)cc3c2=O)cc1C | inactive: -21.6%
53 | COc1ccccc1CNS(=O)(=O)c1c(C)nc2sccn2c1=O | inactive: 0.31%
54 | CCN(Cc1ccccc1)C(=O)CCNS(=O)(=O)c1ccc2c(c1)CC(C)N2C(C)=O (stereo unspecified) | inactive: -9.06%
55 | CCCOC(=O)CSc1nnc2ccc3ccccc3n12 | inactive: -0.644%
56 | O=C(CSc1nc2ccccc2nc1Cc1ccccc1)Nc1ccc2c(c1)OCO2 | inactive: -3.15%
57 | COc1ccc(NC(=O)c2ccc3c(c2)CCN3S(=O)(=O)c2ccc(C)cc2)cc1Cl | inactive: -0.0965%
58 | CCOC(=O)c1cccc(NC(=O)C(C)n2c(C)c3cnn(-c4ccccc4)c(=O)c3c2C)c1 (stereo unspecified) | inactive: -18.1%
59 | Cc1c(Cl)cccc1NC(=O)CN1C(=O)COc2ccc(S(=O)(=O)Nc3ccccc3)cc21 | inactive: -0.291%
60 | COc1ccc(Cl)cc1NC(=O)CCc1c(C)nc2c(c1C)c(=O)n(C)c(=O)n2C | inactive: 16.1%
61 | COc1cc(NC(=O)CSc2nc3nc(C)c(Cc4ccc(C)cc4)c(C)n3n2)cc(OC)c1 | inactive: 30%

From PubChem BioAssay AID1508642 (National Center for Advancing Translational Sciences (NCATS), 2021)
